Blank lines part the entries; values can stand above or below the compound they belong to.
What was measured:
STHdhQ111 striatal cells = experiment: XTT assay of metabolic activity in STHdhQ111 striatal cells; format: cell-based, mouse; conditions: mutant STHdh striatal cells
[1] = test system: Drosophila melanogaster expressing Httex1p Q93; experiment: Neurodegeneration rescue in Httex1p Q93 flies, pseudopupil technique; format: in vivo; conditions: 7 days post eclosion
HDAC5 = HDAC5 (Homo sapiens, UniProt Q9UQL6); experiment: HDAC5 inhibition; conditions: read-out: IC50 for Class II HDAC enzymes: HDAC5; Table 1
Sequence of HDAC5 (Q9UQL6 whole entry, species assumed): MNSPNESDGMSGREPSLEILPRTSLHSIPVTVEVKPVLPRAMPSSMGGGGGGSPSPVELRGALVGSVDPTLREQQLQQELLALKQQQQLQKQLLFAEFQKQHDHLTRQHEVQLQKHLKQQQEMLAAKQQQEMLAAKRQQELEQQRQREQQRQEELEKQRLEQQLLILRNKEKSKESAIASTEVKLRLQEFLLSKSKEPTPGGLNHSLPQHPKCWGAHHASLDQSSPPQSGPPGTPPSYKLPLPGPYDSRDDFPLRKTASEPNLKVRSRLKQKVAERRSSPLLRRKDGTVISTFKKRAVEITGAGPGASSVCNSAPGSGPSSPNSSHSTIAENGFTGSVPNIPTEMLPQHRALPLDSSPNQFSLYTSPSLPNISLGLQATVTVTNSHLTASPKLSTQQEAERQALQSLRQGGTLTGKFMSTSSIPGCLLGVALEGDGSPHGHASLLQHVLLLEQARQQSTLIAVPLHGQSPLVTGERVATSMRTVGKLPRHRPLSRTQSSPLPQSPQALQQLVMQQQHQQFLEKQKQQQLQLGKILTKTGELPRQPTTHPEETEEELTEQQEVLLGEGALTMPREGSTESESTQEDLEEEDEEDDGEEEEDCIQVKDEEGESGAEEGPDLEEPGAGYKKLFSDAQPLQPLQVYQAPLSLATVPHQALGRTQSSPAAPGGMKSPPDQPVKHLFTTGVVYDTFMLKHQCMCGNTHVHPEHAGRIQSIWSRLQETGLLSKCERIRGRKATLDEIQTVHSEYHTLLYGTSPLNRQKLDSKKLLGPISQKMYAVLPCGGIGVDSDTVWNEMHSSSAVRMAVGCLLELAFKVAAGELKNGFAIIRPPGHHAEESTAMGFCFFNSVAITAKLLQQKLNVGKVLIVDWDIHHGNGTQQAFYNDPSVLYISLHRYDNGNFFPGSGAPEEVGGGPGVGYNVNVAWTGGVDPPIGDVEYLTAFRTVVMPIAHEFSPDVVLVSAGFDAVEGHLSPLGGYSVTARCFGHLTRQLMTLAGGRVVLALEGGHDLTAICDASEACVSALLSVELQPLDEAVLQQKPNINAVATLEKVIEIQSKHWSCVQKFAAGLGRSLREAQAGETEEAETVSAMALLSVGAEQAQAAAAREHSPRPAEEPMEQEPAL

[2] = test system: HD-related gene expression in striatum, R6/2 transgenic mice; experiment: Real-time PCR of HD-related genes in striatum of R6/2 transgenic mice; conditions: 150 mg/kg s.c. three days
HDAC8 = target: T1, HDAC8 (Homo sapiens, UniProt Q9BY41); experiment: HDAC8 inhibition, recombinant enzyme cell-free assay; conditions: read-out: IC50 for Class I HDAC enzymes: HDAC8; Table 1
T1 sequence (Q9BY41 1-377): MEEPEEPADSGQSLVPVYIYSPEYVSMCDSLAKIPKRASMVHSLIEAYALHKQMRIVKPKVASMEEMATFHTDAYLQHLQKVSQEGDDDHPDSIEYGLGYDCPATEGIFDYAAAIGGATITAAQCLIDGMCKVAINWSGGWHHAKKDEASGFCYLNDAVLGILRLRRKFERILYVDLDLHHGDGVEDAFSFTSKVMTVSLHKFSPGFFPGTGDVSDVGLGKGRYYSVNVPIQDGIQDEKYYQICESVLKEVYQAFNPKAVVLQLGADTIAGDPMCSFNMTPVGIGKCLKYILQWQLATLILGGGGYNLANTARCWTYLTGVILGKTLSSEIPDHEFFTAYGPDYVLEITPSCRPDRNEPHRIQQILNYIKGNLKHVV

HDAC7 = target: T2, HDAC7 (Homo sapiens, UniProt Q8WUI4); experiment: HDAC7 inhibition; conditions: read-out: IC50 for Class II HDAC enzymes: HDAC7; Table 1
T2 sequence (Q8WUI4 1-952): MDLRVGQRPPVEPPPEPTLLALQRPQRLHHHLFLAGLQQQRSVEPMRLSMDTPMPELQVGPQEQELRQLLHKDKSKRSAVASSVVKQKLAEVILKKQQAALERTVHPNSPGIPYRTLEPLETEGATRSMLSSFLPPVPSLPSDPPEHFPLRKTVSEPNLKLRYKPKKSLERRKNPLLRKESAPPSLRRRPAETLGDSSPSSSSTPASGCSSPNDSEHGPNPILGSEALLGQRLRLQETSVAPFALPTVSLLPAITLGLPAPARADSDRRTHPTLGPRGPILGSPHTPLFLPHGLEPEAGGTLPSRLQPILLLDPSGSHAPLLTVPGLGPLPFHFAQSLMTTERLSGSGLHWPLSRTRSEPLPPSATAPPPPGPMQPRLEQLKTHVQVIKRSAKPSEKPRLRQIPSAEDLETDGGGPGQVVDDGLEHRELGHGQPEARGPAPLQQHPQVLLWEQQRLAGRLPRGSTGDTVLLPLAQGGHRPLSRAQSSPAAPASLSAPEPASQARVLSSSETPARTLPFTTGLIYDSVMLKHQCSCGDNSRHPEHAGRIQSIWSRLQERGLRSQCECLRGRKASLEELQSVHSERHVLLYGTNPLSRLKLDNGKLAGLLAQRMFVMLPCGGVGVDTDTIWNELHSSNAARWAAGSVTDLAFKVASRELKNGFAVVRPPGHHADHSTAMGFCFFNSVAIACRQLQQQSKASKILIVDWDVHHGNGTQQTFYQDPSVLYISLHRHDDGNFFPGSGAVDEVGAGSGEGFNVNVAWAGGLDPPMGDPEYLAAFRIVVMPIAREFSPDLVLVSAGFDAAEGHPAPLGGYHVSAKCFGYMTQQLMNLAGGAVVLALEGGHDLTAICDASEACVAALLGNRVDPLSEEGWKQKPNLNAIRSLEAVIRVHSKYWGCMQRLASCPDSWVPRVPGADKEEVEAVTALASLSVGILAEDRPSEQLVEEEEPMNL

HDAC4 = HDAC4 (Homo sapiens, UniProt P56524); experiment: HDAC4 inhibition; conditions: read-out: IC50 for Class II HDAC enzymes: HDAC4; Table 1
Sequence of HDAC4 (P56524 whole entry, species assumed): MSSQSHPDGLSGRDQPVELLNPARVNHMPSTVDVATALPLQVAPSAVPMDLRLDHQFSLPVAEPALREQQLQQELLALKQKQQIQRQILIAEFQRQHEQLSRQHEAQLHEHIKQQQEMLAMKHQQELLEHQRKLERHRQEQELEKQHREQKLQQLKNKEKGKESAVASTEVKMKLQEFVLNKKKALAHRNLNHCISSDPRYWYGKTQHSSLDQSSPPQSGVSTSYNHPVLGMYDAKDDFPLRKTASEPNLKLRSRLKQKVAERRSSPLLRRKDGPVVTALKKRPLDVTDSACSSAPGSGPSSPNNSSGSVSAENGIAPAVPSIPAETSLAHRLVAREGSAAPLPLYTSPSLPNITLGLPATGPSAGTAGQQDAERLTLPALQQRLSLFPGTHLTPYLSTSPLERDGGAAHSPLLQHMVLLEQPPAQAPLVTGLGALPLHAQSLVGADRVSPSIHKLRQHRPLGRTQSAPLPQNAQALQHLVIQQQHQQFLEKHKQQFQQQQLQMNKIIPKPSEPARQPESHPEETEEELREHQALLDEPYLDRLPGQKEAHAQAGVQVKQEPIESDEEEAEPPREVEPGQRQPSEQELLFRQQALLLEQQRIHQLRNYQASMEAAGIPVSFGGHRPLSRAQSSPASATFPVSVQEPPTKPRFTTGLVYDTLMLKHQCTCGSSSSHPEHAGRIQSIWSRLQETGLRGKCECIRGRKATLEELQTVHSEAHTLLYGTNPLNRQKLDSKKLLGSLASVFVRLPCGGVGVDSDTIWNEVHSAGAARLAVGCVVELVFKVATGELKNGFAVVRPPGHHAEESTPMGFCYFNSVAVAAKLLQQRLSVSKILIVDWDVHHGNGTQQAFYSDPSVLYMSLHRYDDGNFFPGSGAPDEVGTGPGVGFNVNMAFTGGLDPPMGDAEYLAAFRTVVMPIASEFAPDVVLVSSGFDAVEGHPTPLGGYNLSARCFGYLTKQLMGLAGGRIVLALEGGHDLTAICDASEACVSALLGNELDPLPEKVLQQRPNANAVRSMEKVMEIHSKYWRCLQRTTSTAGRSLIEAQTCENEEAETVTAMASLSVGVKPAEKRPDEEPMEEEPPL

SMILES: Cc1ccc(NC(=O)CCCCCC(=O)Nc2ccccc2N)cc1 [4b]
- MEC, minimum effective concentration for metabolic improvement (STHdhQ111 striatal cells; XTT at 24 and 48 hrs): 0.5 µM
- rescue of eye neurodegeneration (rhabdomeres per ommatidium), in words [1]: statistically significant effects

SMILES: Nc1ccccc1NC(=O)c1ccc(CNC(=O)OCc2cccnc2)cc1 [MS275, reference compound]
- MEC, minimum effective concentration for metabolic improvement (STHdhQ111 striatal cells; XTT at 24 and 48 hrs): 1 µM

- IC50 (HDAC5): > 180 µM
- IC50 (HDAC8): 10.7 µM
- IC50 (HDAC7): > 180 µM
- IC50 (HDAC4): > 180 µM
SMILES: Cc1ccc(C(=O)NCCCCCC(=O)Nc2ccccc2N)cc1 [compound 109]
- reversal of expression of genes relevant to HD, in words [2]: less effective
- rescue of eye neurodegeneration (rhabdomeres per ommatidium), in words [1]: not effective

SMILES: Cc1ccc(C(=O)NCCCCCC(=O)Nc2ccc(F)cc2N)cc1 [compound 136]
- MEC, minimum effective concentration for metabolic improvement (STHdhQ111 striatal cells; XTT at 24 and 48 hrs): 1 µM
- rescue of eye neurodegeneration (rhabdomeres per ommatidium), in words [1]: statistically significant effects

SMILES: Nc1ccc(-c2cccs2)cc1NC(=O)CCCCCCNC(=O)c1cccnc1 [compound 233]
- MEC, minimum effective concentration for metabolic improvement (STHdhQ111 striatal cells; only effective at 24 hrs, not 48 hrs): 0.5 µM
- concentration of the most potent effect at reducing eye neurodegeneration [1]: 10 nM
